Molecules are shown by their SMILES. Counter-ions that a name gives are not always drawn.

The test concerns IL-8-induced neutrophil shape change in human whole blood. Nature of the test: cells. The note with it: read-out: Assay L WBSC IC50.
By IC50 is commonly meant the concentration that inhibits the measured activity by half. Regarding `Cc1noc(-c2cc(-c3cc(S(=O)(=O)NC4CC5(CC(O)C5)C4)ccc3C)cnc2N)n1` (racemic) [Example 8, 3-[6-Amino-5-(3-methyl-[1,2,4]oxadiazol-5-yl)-pyridin-3-yl]-N-(6-hydroxy-spiro[3.3]hept-2-yl)-4-methyl-benzenesulfonamide (racemate)], the IC50 amounted to 0.92 µM. The value for `Cc1cc(-c2cc(-c3cc(S(=O)(=O)N[C@H]4CC[C@H](O)C4)ccc3C)cnc2N)on1` (racemic) [Example 96, trans-3-(6-amino-5-(3-methylisoxazol-5-yl)pyridin-3-yl)-N-(3-hydroxycyclopentyl)-4-methylbenzenesulfonamide] was 0.6 µM; that for `Cc1noc(-c2cc(-c3cc(S(=O)(=O)N[C@H]4CC5(C[C@@H](O)C5)C4)ccc3C)cnc2N)n1` (single isomer, unassigned) [Example 8.1, (R) or (S)-3-[6-Amino-5-(3-methyl-[1,2,4]oxadiazol-5-yl)-pyridin-3-yl]-N-(6-hydroxy-spiro[3.3]hept-2-yl)-4-methyl-benzenesulfonamide hydrochloride] was 0.53 µM; that for `Cc1cccc(NS(=O)(=O)c2ccc(C)c(-c3cnc(N)c(-c4cnn(CC(F)(F)F)c4)c3)c2)n1` [Example 1, 3-{6-Amino-5-[1-(2,2,2-trifluoro-ethyl)-1H-pyrazol-4-yl]-pyridin-3-yl}-4-methyl-N-(6-methyl-pyridin-2-yl)-benzenesulfonamide] was 2.19 µM.

Consider `Cc1ccc(S(=O)(=O)NCCC(C)(C)O)cc1-c1cnc(N)c(-c2cnn(C)c2)c1` [Example 2, 3-(6-Amino-5-(1-methyl-1H-pyrazol-4-yl)pyridin-3-yl)-N-(3-hydroxy-3-methylbutyl)-4-methylbenzenesulfonamide], for which the IC50 was determined as 0.84 µM. The value for `Cc1ccc(S(=O)(=O)NCCC(C)(C)O)cc1-c1cnc(N)c(-c2cnn(CC(F)(F)F)c2)c1` [Example 3, 3-(6-Amino-5-(1-(2,2,2-trifluoroethyl)-1H-pyrazol-4-yl)pyridin-3-yl)-N-(3-hydroxy-3-methylbutyl)-4-methylbenzenesulfonamide] was 0.5 µM; that for `Cc1ncc(-c2cc(-c3cc(S(=O)(=O)NCCC(C)(C)O)ccc3C)cnc2N)s1` [Example 4, 3-(6-Amino-5-(2-methylthiazol-5-yl)pyridin-3-yl)-N-(3-hydroxy-3-methylbutyl)-4-methylbenzenesulfonamide] was 0.28 µM; that for `Cc1cc(-c2cc(-c3cc(S(=O)(=O)N[C@H]4CC[C@H](O)CC4)ccc3C)cnc2N)ccn1` [Example 4.3, trans 3-(2-Amino-2′-methyl-[3,4′-bipyridin]-5-yl)-N-(4-hydroxycyclohexyl)-4-methyl-benzenesulfonamide] was 1.02 µM. Regarding `Cc1ccc(S(=O)(=O)NCC(C)(C)O)cc1-c1cnc(N)c(-c2cnn(C)n2)c1` [Example 4.4, 3-(6-amino-5-(2-methyl-2H-1,2,3-triazol-4-yl)pyridin-3-yl)-N-(2-hydroxy-2-methylpropyl)-4-methylbenzenesulfonamide hydrochloride], the half-inhibitory concentration (IC50) was 0.94 µM. Turning to `CCc1cc(-c2cc(-c3cc(S(=O)(=O)NCC(C)(C)O)ccc3C)cnc2N)on1` [Example 4.6, 3-(6-Amino-5-(3-ethylisoxazol-5-yl)pyridin-3-yl)-N-(2-hydroxy-2-methylpropyl)-4-methyl-benzenesulfonamide hydrochloride], the half-maximal inhibitory concentration (IC50) is 1.77 µM. In the case of `Cc1noc(-c2cc(-c3cc(S(=O)(=O)NCC4(C)COC4)ccc3C)cnc2N)n1` [Example 4.9, 3-(6-Amino-5-(3-methyl-1,2,4-oxadiazol-5-yl)pyridin-3-yl)-4-methyl-N-((3-methyloxetan-3-yl)methyl)benzene-sulfonamide] it was 3.16 µM; in that of `Cc1noc(-c2cc(-c3cc(S(=O)(=O)NCCC(C)(C)O)ccc3C)cnc2N)n1` [Example 5, 3-[6-Amino-5-(3-methyl-[1,2,4]oxadiazol-5-yl)-pyridin-3-yl]-N-(3-hydroxy-3-methyl-butyl)-4-methyl-benzenesulfonamide hydrochloride], 0.25 µM. On to `Cc1ccc(S(=O)(=O)NCC(C)(C)O)cc1-c1cnc(N)c(-c2nc(C(C)C)no2)c1` [Example 5.1, 3-(6-Amino-5-(3-isopropyl-1,2,4-oxadiazol-5-yl)pyridin-3-yl)-N-(2-hydroxy-2-methylpropyl)-4-methylbenzenesulfonamide hydrochloride], for which the IC50 was 4.99 µM. `Cc1cc(-c2cc(-c3cc(S(=O)(=O)N[C@H]4CC[C@H](O)CC4)ccc3C)cnc2N)on1` [Example 5.4, trans 3-(6-Amino-5-(3-methylisoxazol-5-yl)pyridin-3-yl)-N-(-4-hydroxycyclohexyl)-4-methylbenzenesulfon-amide hydrochloride]: the IC50 was determined as 0.38 µM. The value for `Cc1ncc(-c2cc(-c3cc(S(=O)(=O)NCC(C)(C)O)ccc3C)cnc2N)o1` [Example 6, 3-(6-Amino-5-(2-methyloxazol-5-yl)pyridin-3-yl)-N-(2-hydroxy-2-methylpropyl)-4-methylbenzenesulfonamide] was 0.99 µM; that for `Cc1ncc(-c2cc(-c3cc(S(=O)(=O)NCCCO)ccc3C)cnc2N)s1` [Example 9, 3-[6-Amino-5-(2-methyl-thiazol-5-yl)-pyridin-3-yl]-N-(3-hydroxy-propyl)-4-methyl-benzenesulfonamide] was 1.28 µM; that for `Cc1noc(-c2cc(-c3cc(S(=O)(=O)NOCC(C)(C)O)ccc3C)cnc2N)n1` [Example 11, 3-[6-Amino-5-(3-methyl-[1,2,4]oxadiazol-5-yl)-pyridin-3-yl]-N-(2-hydroxy-2-methyl-propoxy)-4-methyl-benzenesulfonamide, hydrochloride salt] was 0.44 µM. The value for `Cc1noc(-c2cc(-c3cc(S(=O)(=O)N[C@H]4CC[C@H](O)CC4)ccc3C)cnc2N)n1` [Example 12, trans 3-[6-Amino-5-(3-methyl-[1,2,4]oxadiazol-5-yl)-pyridin-3-yl]-N-(4-hydroxy-cyclohexyl)-4-methyl-benzenesulfonamide, hydrochloride salt] was 0.38 µM. In the case of `Cc1ncc(-c2cc(-c3cc(S(=O)(=O)NCCC(C)(C)O)ccc3C)cnc2N)o1` [Example 13, 3-[6-Amino-5-(2-methyl-oxazol-5-yl)-pyridin-3-yl]-N-(3-hydroxy-3-methyl-butyl)-4-methyl-benzenesulfonamide, hydrochloride salt] it was 0.66 µM; in that of `Cc1ncc(-c2cc(-c3cc(S(=O)(=O)NCC(C)(C)O)ccc3C)cnc2N)s1` [Example 15, 3-[6-Amino-5-(2-methyl-thiazol-5-yl)-pyridin-3-yl]-N-(2-hydroxy-2-methyl-propyl)-4-methyl-benzenesulfonamide], 1.91 µM; in that of `Cc1cc(-c2cc(-c3cc(S(=O)(=O)NCCC(C)(C)O)ccc3C)cnc2N)ccn1` [Example 16, 3-(2-Amino-2′-methyl-[3,4′]bipyridinyl-5-yl)-N-(3-hydroxy-3-methyl-butyl)-4-methyl-benzenesulfonamide], 2.47 µM.

For `Cc1cc(-c2cc(-c3cc(S(=O)(=O)NCC4(C)COC4)ccc3C)cnc2N)on1` [Example 17, 3-[6-Amino-5-(3-methyl-isoxazol-5-yl)-pyridin-3-yl]-4-methyl-N-(3-methyl-oxetan-3-ylmethyl)-benzenesulfonamide hydrochloride], the IC50 was found to be 2.62 µM.
